Assay results: PubChem BioAssay AID1745853 (National Center for Advancing Translational Sciences (NCATS), 2022)
The list shows a part of the results. These are further read-outs of the screen, such as a control signal, another cell line or another target. No call is given for them. Peptide text beside a SMILES is read from it.

Key:
Assay in all cases: Primary Screen for Target Class Profiling of Small Molecule Inhibitors of Methyltransferases
[1] = target: Glycine N-methyltransferase (Homo sapiens) (UniProt Q14749); settings: purified enzyme, MTase-Glo SAH luminescence; measured here: GNMT inhibition; at 40 µM; stronger effect = lower value
Procedure, shortened: (§1)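 Each enzyme was reacted with SAM and its substrate, with compounds tested once at 40 uM; SAH formed was read by MTase-Glo luminescence.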

[2] = target: Guanidinoacetate N-methyltransferase (Homo sapiens) (UniProt Q14353); settings: purified enzyme, MTase-Glo SAH luminescence; measured here: GAMT inhibition; at 40 µM; stronger effect = lower value
Procedure, shortened: as §1

[3] = target: Histamine N-methyltransferase (Homo sapiens) (UniProt P50135); settings: purified enzyme, MTase-Glo SAH luminescence; measured here: HNMT inhibition; at 40 µM; stronger effect = lower value
Procedure, shortened: as §1

[4] = target: Nicotinamide N-methyltransferase (Homo sapiens) (UniProt P40261); settings: purified enzyme, MTase-Glo SAH luminescence; measured here: NNMT inhibition; at 40 µM; stronger effect = lower value
Procedure, shortened: as §1

[5] = target: Phenylethanolamine N-methyltransferase (Homo sapiens) (UniProt P11086); settings: purified enzyme, MTase-Glo SAH luminescence; measured here: PNMT inhibition; at 40 µM; stronger effect = lower value
Procedure, shortened: as §1
% is set by controls: 0 for no effect and ±100 for the full control effect.

SMILES | activity change, negative = inhibition [1] | activity change, negative = inhibition [2] | activity change, negative = inhibition [3] | activity change, negative = inhibition [4] | activity change, negative = inhibition [5]
CN(C)C[C@@H]1CN(C2CCOCC2)C[C@H]1NC(=O)Cc1ccccc1Cl | -7.22% | -7.34% | -6.11% | -17% | -12.6%
CC1CCC(NC(=O)C2(C)Cn3c(ccc3-c3ccco3)C(=O)N2CCCc2ccccc2)CC1 (stereo not given) | -13.4% | 3.28% | -2.68% | -9.48% | -3.29%
O=C(O)C(Cc1ccccc1)NC(=O)C1CCCN1 (stereo not drawn) (H-Pro-Phe-OH; configuration not given here) | 0.024% | 0.41% | 7.92% | -13% | -6.12%
O=C(Nc1ccc(S(=O)(=O)Nc2ccccc2Cl)c(Cl)c1)c1ccccn1 | -6.36% | -13.8% | -3.31% | -28% | -13.8%
O=C(NC[C@H]1O[C@@H](CC(=O)N2CCN(c3ccccn3)CC2)[C@H](O)[C@@H]1O)c1ccco1 | -2.8% | -1.27% | -1.01% | -7.65% | -4.42%
C[C@@H]([C@@H](O)c1ccc(O)cc1)N1CCC(O)(c2ccccc2)CC1 | -5.15% | -12.3% | 1.76% | -24.4% | -2.91%
O=C(N[C@H](C1CCNCC1)C1CC(O)C1)c1ccc2nccnc2c1 (stereo not given in full) | -6.63% | -2.96% | -56% | -3.27% | -15.3%
Cn1cc(-c2nc(N3CCOCC3)cc3c2CN(CC2CC2)C3=O)cn1 | -11.7% | -9.63% | -10.1% | -21.9% | -10.3%
CC1(C(=O)NCc2ccc(F)cc2)Cn2cnc(C(=O)NCc3ccccc3F)c2C(=O)N1C1CC1 (stereo not given) | -6.71% | 3.15% | -3.56% | -5.67% | -2.44%
CC[C@H](C)/C=C(C)/C=C/C1=CC2=C(Cl)C(=O)[C@](C)(O)[C@H](OC(C)=O)[C@H]2CO1 | -1.89% | 3.32% | 6.33% | -12.6% | -1.58%
CC(C)CNC(=O)c1ccc2c(=O)n(CC(C)C)c3nn(Cc4ccc(F)cc4)c(=O)n3c2c1 | 7.47% | 0.005% | 7.69% | 4.93% | 6.18%
CC1CCN(S(=O)(=O)c2ccc3c(ccn3CCC(=O)NC3CCCCC3)c2)CC1 | -0.063% | -0.732% | 1.37% | -8.73% | -4.84%
CCc1cc2c(cc3n2CC(C)(C(=O)NC2CCCCC2)N(CC(C)c2ccccc2)C3=O)s1 (stereo not given) | -1.85% | 2.81% | -3.35% | 3.12% | -2.77%
CCN(C1CCOCC1)C1CN(C(=O)C2CCCCC2)C1 | -3.88% | -4.04% | -3.17% | -9.3% | 9.61%
CNC(=O)c1cccc(-c2cnc3[nH]cc(CC(=O)Nc4ccccc4Cl)c3c2)c1 | -47.1% | -17.4% | -20.2% | -45.6% | -20.5%
OCCn1cc(-c2cnc3nnn(Cc4ccc5ncccc5c4)c3n2)cn1 | -8.31% | -18.3% | -7.59% | -27.8% | -20.7%
CC(C)Cc1ccc(S(=O)(=O)NCCn2cnc3ccccc32)cc1 | -4.33% | 0% | 8.57% | 3.62% | 3.73%
CC(C)CC[C@@H](O)[C@](C)(O)[C@H]1CC[C@@]2(O)C3=CC(=O)[C@@H]4C[C@@H](O)[C@@H](O)C[C@]4(C)[C@H]3CC[C@]12C | 4% | 0.971% | 12.1% | -7.21% | 7.78%
